PubChem BioAssay AID485294 (National Center for Advancing Translational Sciences (NCATS), 2010)
Out of some 370,000 compounds screened, about 150 (0.041%) were called active. The inconclusive results got no clear call from the source; some entries with a clear call stand among them for comparison. Calls follow the shape of the dose curve; as a rule, active = well fitted inhibition curve with a large enough effect; inconclusive = small, poorly fitted or top-dose-only effect; inactive = flat fitted curve, though single readings scatter. No potency is given beside an inconclusive call; the fits are too rough.

Target: Beta-lactamase (Escherichia coli (strain K12)) (UniProt P00811)
UniProt P00811, sequence (P00811 whole entry, looked up): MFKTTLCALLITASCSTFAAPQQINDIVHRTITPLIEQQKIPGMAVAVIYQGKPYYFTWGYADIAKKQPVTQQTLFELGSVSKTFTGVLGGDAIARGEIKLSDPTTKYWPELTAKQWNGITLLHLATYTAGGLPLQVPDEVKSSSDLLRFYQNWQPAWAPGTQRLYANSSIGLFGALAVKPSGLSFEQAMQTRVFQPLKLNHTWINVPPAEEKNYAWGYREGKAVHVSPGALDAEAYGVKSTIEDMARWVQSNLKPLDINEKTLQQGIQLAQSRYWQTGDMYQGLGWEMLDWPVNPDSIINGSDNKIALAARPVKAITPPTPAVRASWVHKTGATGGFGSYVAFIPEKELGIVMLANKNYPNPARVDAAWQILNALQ
Test: qHTS Inhibitors of AmpC Beta-Lactamase (assay with detergent); also: nearly all actives have a fitted effect of over 25% in size
Conditions: AmpC hydrolysis of nitrocefin, absorbance 480 nm, 0.01% Triton; series mostly up to 114 µM
Method in brief: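 AmpC (5.3 nM in the dispensed reagent) in 20 mM phosphate pH 7.0 with 0.01% (detergent screen) or 0.0001% Triton X-100 was preincubated with compounds for 15 min at room temperature. Nitrocefin was then added from an 800 uM solution, and hydrolysis was followed at 480 nm.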
Potency is read from the fitted curve at half-maximal effect; tags tell the direction and shape of the fitted curve.

| Compound | Potency |
| --- | --- |
| C=C1c2cc(CC)ccc2NC(=O)N1c1ccc(C)cc1 | inconclusive [inhibitor, full curve] |
| CCOc1ccc2[nH]c3c(NCCCOC)ncnc3c2c1 | inactive |
| O=C(COc1ccc2ccc(=O)oc2c1)N1CCc2ccccc21 | inactive |
| COc1ccc(Cc2c(N)nc(C)nc2N)cc1 | inconclusive [inhibitor, full curve, poor fit] |
| O=C(O)C1CCC(CNCc2ccncc2)CC1 (stereo unspecified) | inconclusive [inhibitor, single point] |
| Cc1ccccc1OCCn1cnc2c(N)ncnc21 | inactive |
| CN1C(=O)N(C)C2(c3ccccc3)NC(=O)NC12c1ccccc1 (stereo unspecified) | inconclusive [inhibitor, full curve, poor fit] |
| CC[C@@]1(c2ccccc2OC)C(=O)N(C(=O)OC)N1C(=O)OC | inconclusive [inhibitor, full curve, poor fit] |
| CC(=O)NNC(=O)CCn1c2c(c3ccccc31)CCCC2 | inactive |
| O=C(OC1CCN(CCCl)CC1)C(c1ccccc1)c1ccccc1 | inconclusive [inhibitor, full curve, poor fit] |
| Cc1cc(Cl)c(S(=O)(=O)NC2CCCCC2)cc1OCC(=O)Nc1nncs1 | inactive |
| CC(=C/c1ccccc1)/C=C1/SC(N2CCOCC2)=NC1=O | inactive |
| CCC(=O)c1ccc(OCC(=O)Nc2cc(S(=O)(=O)N3CCCCC3)ccc2N2CCN(CC)CC2)cc1 | inactive |
| CCCN1C(=O)c2cc(C(=O)O)ccc2C1O (stereo unspecified) | inconclusive [inhibitor, full curve, poor fit] |
| Cc1ccccc1C(OCCN(C)C)c1ccccc1 (stereo unspecified) | inconclusive [inhibitor, full curve, poor fit] |
| Cc1nc2ccccc2n1CC(=O)N1CC(=O)Nc2ccccc21 | inconclusive [inhibitor, full curve] |
| CC(C)Oc1ccc(Br)cc1C(=O)N/N=C/c1c[nH]c2ccccc12 | inactive |
| CN(C)C(=O)Oc1ccc(Cl)c2cccnc12 | inconclusive [inhibitor, single point] |
| CC1CCCN(Cc2c(O)ccc3c(=O)c(-c4ccccc4Cl)c(C(F)(F)F)oc23)C1 (stereo unspecified) | inactive |
| C/C(=N/NC(=O)c1cc(O)c(O)c(O)c1)c1ccc([N+](=O)[O-])cc1 | inconclusive [inhibitor, single point] |
| CCc1ccc2[nH]c(=O)c(C(c3nnnn3CC3CCCO3)N3CCCc4ccccc43)cc2c1 (stereo unspecified) | inactive |
| O=C(Nc1ccccc1-c1nnn(CC(=O)N2CCN(c3ccccc3)CC2)n1)c1cccs1 | inconclusive [inhibitor, partial curve, poor fit] |
| Cc1cccc2nc(-c3ccco3)c(Nc3ccccc3)n12 | inconclusive [inhibitor, partial curve, poor fit] |
| N#Cc1nc(-c2ccc(OCc3ccc(Cl)cc3)cc2)oc1NCCCn1ccnc1 | inactive |

| Compound | Potency |
| --- | --- |
| CCC1CCCCN1CCCNC(=O)Cn1ncc2c(C)n(Cc3ccccc3Cl)c(C)c2c1=O (stereo unspecified) | inactive |
| CCn1cc(CNC(=O)c2ccc(OC3CCN(Cc4ccccn4)CC3)cc2)cn1 | inconclusive [inhibitor, full curve, poor fit] |
| CCCCN(C(=O)c1ccc(S(=O)(=O)N2CCCCC2)cc1)C1CCS(=O)(=O)C1 (stereo unspecified) | inconclusive [inhibitor, full curve, poor fit] |
| CCC(Oc1ccccc1)C(=O)OCC(=O)Nc1sccc1C(N)=O (stereo unspecified) | inconclusive [inhibitor, partial curve, poor fit] |
| Cc1nn(C(C)C(=O)Nc2cccc(F)c2)c(=O)c2c1sc1ccccc12 (stereo unspecified) | inactive |
| Cc1nc(COC(=O)c2c(C)nn(-c3ccccc3)c2C)cs1 | inconclusive [inhibitor, full curve, poor fit] |
| CCOCCCN(C)C1CCN(C(=O)c2oc3ccccc3c2NC(=O)Cc2ccc(F)cc2)CC1 | inconclusive [inhibitor, full curve, poor fit] |
| Cc1ccc(Nc2c(-c3ccc(N4CCOCC4)cc3)nc3ncccn23)c(C)c1 | inconclusive [inhibitor, partial curve, poor fit] |
| Nc1c2c(nc3ccn(Cc4ccccc4)c(=O)c13)CCC2 | inactive |
| CCOC(=O)C(NC(C)=O)(OCc1ccccc1)C(F)(F)F (stereo unspecified) | inactive |
| Cc1cc(N2C(=O)C3CCC(c4ccccc4)CC3C2=O)no1 (stereo unspecified) | inconclusive [inhibitor, partial curve, poor fit] |
| CCCCCOc1ccccc1Cn1c(=O)oc2ccc(C)cc21 | inactive |
| O=C(CSc1nnc(COc2ccc(Cl)cc2)o1)OC1CCCCC1 | inconclusive [inhibitor, full curve, poor fit] |
| S=C(NCCN1CCOCC1)Nc1cccc2ccccc12 | inconclusive [inhibitor, partial curve, poor fit] |
| CC(C)N(C(=O)CSc1nn2c(=O)c(C(C)(C)C)nnc2s1)c1ccccc1 | inconclusive [inhibitor, partial curve, poor fit] |
| BrC(=C\c1ccccc1)/C=N/n1cnnc1 | inactive |
| O=C(COc1ccccc1Cl)Nc1ccc2c(c1)OCCO2 | inconclusive [inhibitor, full curve] |
| CC(C)OCCCNC(=O)c1c2c(nc3ccccc13)C(=O)N(C1CCCCC1)C2 | inactive |
| O=C(N/N=C/C=C/c1ccccc1)C1CC1c1ccccc1 (stereo unspecified) | inconclusive [inhibitor, partial curve, poor fit] |
| CC(C)OC(=O)NCCOC(=O)Nc1ccc(Cl)cc1 | inactive |
| CCOC(=O)c1ccc(-c2ccc(CO)o2)cc1 | inconclusive [inhibitor, full curve, poor fit] |
| CN(C)S(=O)(=O)c1ccc(Cl)c(C(=O)Nc2ccc(S(=O)(=O)N3CCOCC3)cc2)c1 | inconclusive [inhibitor, full curve, poor fit] |
| COCCN(C(=O)CSc1ncn[nH]1)c1c(N)n(Cc2ccccc2)c(=O)[nH]c1=O | inconclusive [inhibitor, full curve, poor fit] |
| CC(C)Cn1c(=O)c(C(=O)Nc2cnccn2)c(O)c2ccccc21 | inconclusive [inhibitor, single point] |

| Compound | Potency |
| --- | --- |
| Cc1nn(-c2cc(N3CCOCC3)ccc2[N+](=O)[O-])c(=O)c2ccccc12 | inconclusive [inhibitor, full curve, poor fit] |
| Cc1ccc(Cn2c(CCCO)nc3ccccc32)cc1 | inactive |
| CCOC(=O)c1sc(=NC(=O)c2ccc(C)cc2)n(C)c1C | inconclusive [inhibitor, full curve, poor fit] |
| O=C(Nc1ccc2nc3n(c(=O)c2c1)CCCCC3)c1ccccc1Cl | inconclusive [inhibitor, partial curve] |
| Cc1ccc(N(CC(=O)N/N=C/c2cc(C)n(-c3ccccc3C)c2C)S(C)(=O)=O)cc1 | inconclusive [inhibitor, partial curve] |
| O=C1NCC(O)=C1C=Nc1ccccc1O | inactive |
| CCN(C(=O)c1cc2c(=O)[nH]c3ccc(C)cc3c2s1)c1ccc(OC)cc1 | inactive |
| COc1ccc(CN2CCNC(=O)C2CC(=O)NC2CCCC2)c(OC)c1 (stereo unspecified) | inactive |
| COc1ccc(CNC(=O)CC23CC4CC(CC(C4)C2)C3)cc1 | inconclusive [inhibitor, partial curve, poor fit] |
| Cc1ccccc1-n1c(C)cc(/C=N/NC(=O)c2ccncc2)c1C | inconclusive [inhibitor, partial curve, poor fit] |
| Cc1ccc(NC(=O)Cn2nnc(C(=O)NCc3cccs3)c2N)cc1F | inactive |
| CC(c1nnc(Sc2nnnn2-c2ccccc2)n1-c1ccc(F)cc1)N(C)C (stereo unspecified) | inactive |
| O=C1CCN(S(=O)(=O)c2ccccc2)CCN1CCOCc1ccc(C(F)(F)F)cc1 | inactive |
| O=C(Cn1c(C(F)(F)F)nc2ccccc21)c1ccc(F)cc1 | inconclusive [inhibitor, partial curve, poor fit] |
| COC(=O)CCCC(=O)N1CCC(n2nccc2NC(=O)CCOc2ccccc2)CC1 | inconclusive [inhibitor, full curve, poor fit] |
| O=C1CCC(C(=O)O)N1 (stereo unspecified) | inconclusive [inhibitor, partial curve] |
| CCOC(=O)C(NC(=O)CC)(Nc1ccc(S(=O)(=O)Nc2ncccn2)cc1)C(F)(F)F (stereo unspecified) | inconclusive [inhibitor, partial curve, poor fit] |
| CCC(C(=O)NC1CCCCC1)n1nc(C)c2sc3ccccc3c2c1=O (stereo unspecified) | inactive |
| Cc1ccc(C(=O)Nc2cccc(C(=O)NCc3ccco3)c2)cc1 | inactive |
| CC1C2CC(C(S(=O)(=O)N3CCOCC3)C2=O)C1(C)C (stereo unspecified) | inconclusive [inhibitor, single point] |
| COc1ccc(/C=C/C(=O)N2CCN(C)CC2)cc1OC | inconclusive [inhibitor, full curve, poor fit] |
| COc1ccc(C)cc1N(CC(=O)NC1CCCC1)C(=O)Cn1nnc(-c2ccc(C)o2)n1 | inconclusive [inhibitor, partial curve, poor fit] |
| CC(C)[C@@H]1NC(=O)c2cc([N+](=O)[O-])cc(I)c2NCCC[C@@H](C(N)=O)NC(=O)[C@H](CO)NC1=O | inconclusive [inhibitor, partial curve, poor fit] |
